Our source for the binding values is PMC10511709.

Protein sequences, listed by entry. Tags and fused reporters are not part of them. Lines headed by an entry give the natural chain unless they say otherwise; changes in a name come on top.
UniProt P28188: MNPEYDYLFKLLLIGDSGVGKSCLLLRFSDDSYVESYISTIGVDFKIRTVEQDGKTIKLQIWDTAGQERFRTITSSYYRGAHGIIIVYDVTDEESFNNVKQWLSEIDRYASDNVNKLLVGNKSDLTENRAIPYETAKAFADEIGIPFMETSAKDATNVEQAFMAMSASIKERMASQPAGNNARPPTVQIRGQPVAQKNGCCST
UniProt Q9LS94: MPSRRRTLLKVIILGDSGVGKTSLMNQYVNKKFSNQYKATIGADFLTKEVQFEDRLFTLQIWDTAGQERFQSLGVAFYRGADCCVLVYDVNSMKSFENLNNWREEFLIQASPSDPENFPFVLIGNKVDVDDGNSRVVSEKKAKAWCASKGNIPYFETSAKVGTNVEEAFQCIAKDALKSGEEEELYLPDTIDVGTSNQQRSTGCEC
UniProt O04157: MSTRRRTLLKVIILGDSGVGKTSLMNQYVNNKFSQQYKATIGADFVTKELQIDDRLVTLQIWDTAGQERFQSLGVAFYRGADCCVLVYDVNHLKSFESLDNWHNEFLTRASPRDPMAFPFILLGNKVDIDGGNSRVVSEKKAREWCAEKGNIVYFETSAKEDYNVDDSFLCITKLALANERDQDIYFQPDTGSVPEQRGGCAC

Where two headings read alike, the source gives them in different places. No constants are given. Whether binding was seen depends on the method and setting. For some of these results: In cells and extracts the contact can be indirect. Some binding calls cover weakened binding; strength is not graded here. Where a sequence is shown, tags or fusion partners need not be part of it.

Test [1] addresses T1, NET4A, full length, yeast two-hybrid fusion (Arabidopsis thaliana) (UniProt F4KEW8).
T1 sequence: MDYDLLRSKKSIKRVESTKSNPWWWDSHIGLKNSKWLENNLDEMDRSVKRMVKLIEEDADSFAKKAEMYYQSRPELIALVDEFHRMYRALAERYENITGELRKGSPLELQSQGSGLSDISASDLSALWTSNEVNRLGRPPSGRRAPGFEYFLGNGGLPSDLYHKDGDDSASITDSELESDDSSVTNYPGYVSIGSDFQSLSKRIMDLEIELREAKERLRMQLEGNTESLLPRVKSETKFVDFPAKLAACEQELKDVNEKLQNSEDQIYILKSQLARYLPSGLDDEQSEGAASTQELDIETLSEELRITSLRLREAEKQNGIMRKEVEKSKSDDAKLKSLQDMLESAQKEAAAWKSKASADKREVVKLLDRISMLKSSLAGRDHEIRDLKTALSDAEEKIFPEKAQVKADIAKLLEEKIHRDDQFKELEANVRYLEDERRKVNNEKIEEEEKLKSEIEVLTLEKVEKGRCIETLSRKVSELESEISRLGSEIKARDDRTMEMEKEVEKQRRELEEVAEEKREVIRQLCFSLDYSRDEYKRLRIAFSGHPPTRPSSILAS
Kind of test: two-hybrid; one-on-one mating; pGBKT7 baits in AH109, pGADT7 preys in Y187; growth on SD -WLH + 2.5 mM 3AT at 30 °C for 5-7 days; empty vectors as controls.

For test [2], the target named is T2, NET4B, full length, yeast two-hybrid fusion (Arabidopsis thaliana) (UniProt Q84VY2).
T2 sequence: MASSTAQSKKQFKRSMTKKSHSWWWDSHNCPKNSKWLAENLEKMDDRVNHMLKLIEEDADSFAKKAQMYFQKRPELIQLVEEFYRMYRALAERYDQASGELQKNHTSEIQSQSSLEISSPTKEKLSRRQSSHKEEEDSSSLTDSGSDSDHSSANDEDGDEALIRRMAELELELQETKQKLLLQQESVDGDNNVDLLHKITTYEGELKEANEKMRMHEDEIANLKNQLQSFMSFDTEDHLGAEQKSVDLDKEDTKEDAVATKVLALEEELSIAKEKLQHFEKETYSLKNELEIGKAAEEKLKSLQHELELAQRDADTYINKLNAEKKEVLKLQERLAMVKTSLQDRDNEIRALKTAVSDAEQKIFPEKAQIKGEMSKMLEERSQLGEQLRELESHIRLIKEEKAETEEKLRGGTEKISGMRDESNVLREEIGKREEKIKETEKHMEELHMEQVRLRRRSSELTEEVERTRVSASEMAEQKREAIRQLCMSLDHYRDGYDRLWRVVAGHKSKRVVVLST
The test is described as above.

The target of test [3] is T3, NET4A-GFP (Arabidopsis thaliana) (UniProt F4KEW8).
T3 sequence: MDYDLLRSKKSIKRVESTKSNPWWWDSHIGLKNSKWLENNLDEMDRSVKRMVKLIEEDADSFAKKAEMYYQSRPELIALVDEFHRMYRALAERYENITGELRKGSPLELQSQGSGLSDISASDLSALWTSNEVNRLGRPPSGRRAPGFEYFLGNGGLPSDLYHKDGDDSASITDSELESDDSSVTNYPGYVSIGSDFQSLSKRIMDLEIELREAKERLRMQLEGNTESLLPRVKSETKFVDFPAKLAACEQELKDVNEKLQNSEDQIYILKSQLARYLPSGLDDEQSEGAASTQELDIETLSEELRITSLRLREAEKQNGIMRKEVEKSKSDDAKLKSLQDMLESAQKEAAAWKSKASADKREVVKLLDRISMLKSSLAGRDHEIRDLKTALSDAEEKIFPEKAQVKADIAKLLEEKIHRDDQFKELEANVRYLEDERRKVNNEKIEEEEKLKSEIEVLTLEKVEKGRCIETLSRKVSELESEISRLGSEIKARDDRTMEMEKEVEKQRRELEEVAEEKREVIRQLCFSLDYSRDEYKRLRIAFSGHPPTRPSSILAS
Kind of test: co-IP; fusion proteins co-expressed in N. benthamiana leaves; GFP-Trap beads, 3 h at 4 °C; extraction buffer 50 mM Tris HCl pH 7.5, 50 mM NaCl, 1% IGEPAL; blots with GFP and RFP antibodies.

In test [4] the target is T1, NET4A, full length, yeast two-hybrid fusion (Arabidopsis thaliana). The test is described as follows: two-hybrid; one-on-one mating; pGBKT7 baits in AH109, pGADT7 preys in Y187; growth on SD -WLH + 2.5 mM 3AT at 30 °C for 5-7 days; empty vectors as controls. The source holds these as a separate data set.
In test [5] the target is T4, NET4B residues 464-511 (RABG3 binding domain), yeast two-hybrid bait (Arabidopsis thaliana) (UniProt Q84VY2).
T4 sequence: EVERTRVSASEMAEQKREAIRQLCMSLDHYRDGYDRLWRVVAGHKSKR
The test is described as above.

Test [6] concerns the target T2, NET4B, full length, yeast two-hybrid fusion (Arabidopsis thaliana). The description is as above. This is another data set of the same source.
Test [7] concerns the target RABD2a, yeast two-hybrid bait (Arabidopsis thaliana) (UniProt P28188). The description is as above.
In test [8] the target is T5, RABF2a, yeast two-hybrid bait (Arabidopsis thaliana) (UniProt P31582).
T5 sequence: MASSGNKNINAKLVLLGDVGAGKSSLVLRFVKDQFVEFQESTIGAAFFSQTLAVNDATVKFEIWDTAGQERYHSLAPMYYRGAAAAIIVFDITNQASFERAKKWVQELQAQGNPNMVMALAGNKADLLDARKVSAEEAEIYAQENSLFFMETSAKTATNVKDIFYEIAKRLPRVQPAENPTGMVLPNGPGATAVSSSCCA
The test is described as above.

The target of test [9] is T6, RABA5c, yeast two-hybrid bait (Arabidopsis thaliana) (UniProt P28187).
T6 sequence: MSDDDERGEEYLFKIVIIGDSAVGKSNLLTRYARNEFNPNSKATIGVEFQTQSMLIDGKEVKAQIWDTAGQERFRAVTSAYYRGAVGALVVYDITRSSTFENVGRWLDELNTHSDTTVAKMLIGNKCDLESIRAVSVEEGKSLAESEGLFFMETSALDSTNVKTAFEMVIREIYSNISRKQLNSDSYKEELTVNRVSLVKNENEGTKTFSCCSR
The description is as above.

Test [10] has as its target T3, NET4A-GFP (Arabidopsis thaliana). The test is described as follows: FRET or BRET; FRET-FLIM; donor NET4A-GFP, acceptor NET4B-RFP, co-expressed in N. benthamiana leaf epidermal cells; reduction of donor lifetime. On the technique in general: BRET reads energy transfer from a luciferase to a nearby fluorophore.
The target is the same in test [11]. The test is described as follows: co-IP; fusion proteins co-expressed in N. benthamiana leaves; GFP-Trap beads, 3 h at 4 °C; extraction buffer 50 mM Tris HCl pH 7.5, 50 mM NaCl, 1% IGEPAL; blots with GFP and RFP antibodies. The source holds these as a separate data set.

Turning to “CA-RABG3f (constitutive active, Q67L), yeast two-hybrid fusion (from UniProt Q9LS94 1-206)”, the binding result in test [1] and in [2] was “binds” throughout.

As to “RABG3f, wild type, yeast two-hybrid fusion (from UniProt Q9LS94 1-206)”, the binding entry in [1] and in test [2] was “binds” each time.

“RFP-RABG3b, wild type (from UniProt O04157 1-203)”: the binding result in test [3] is reported as “binds”.

Take “DN-RABG3f (dominant negative, T22N), yeast two-hybrid fusion (from UniProt Q9LS94 1-206)”: the binding result in test [1] and in [2] was “no binding” throughout.

B1: CA-RABG3a (constitutive active, Q67L), yeast two-hybrid fusion (protein, UniProt Q948K8 1-206)
chain: MATRRRTLLKVIVLGDSGVGKTSLMNQYVHKKFSMQYKATIGADFVTKELQIGEKLVTLQIWDTAGLERFQSLGAAFYRGADCCALVYDVNVLRSFDNLETWHEEFLKQASPSDPKTFPFIVLGNKIDVDGGSSRVVSDKKAADWCASNGNIPYFETSAKDDFNVDEAFLTIAKTALANEHEQDIYFQGIPDAVTENEPKGGGCAC
In the case of B1, the binding entry in test [4], in test [5] and in [6] was “binds” each time.

B2: RABG3a, wild type, yeast two-hybrid fusion (protein, UniProt Q948K8 1-206)
chain: MATRRRTLLKVIVLGDSGVGKTSLMNQYVHKKFSMQYKATIGADFVTKELQIGEKLVTLQIWDTAGQERFQSLGAAFYRGADCCALVYDVNVLRSFDNLETWHEEFLKQASPSDPKTFPFIVLGNKIDVDGGSSRVVSDKKAADWCASNGNIPYFETSAKDDFNVDEAFLTIAKTALANEHEQDIYFQGIPDAVTENEPKGGGCAC
For B2, the binding entry in test [4] and in test [6] was “binds” in each case.

B3: DN-RABG3a (dominant negative, T22N), yeast two-hybrid fusion (protein, UniProt Q948K8 1-206)
chain: MATRRRTLLKVIVLGDSGVGKNSLMNQYVHKKFSMQYKATIGADFVTKELQIGEKLVTLQIWDTAGQERFQSLGAAFYRGADCCALVYDVNVLRSFDNLETWHEEFLKQASPSDPKTFPFIVLGNKIDVDGGSSRVVSDKKAADWCASNGNIPYFETSAKDDFNVDEAFLTIAKTALANEHEQDIYFQGIPDAVTENEPKGGGCAC
For the molecule B3, the binding entry in test [4] and in test [6] was “no binding” throughout.

B4: NET4A, full length, yeast two-hybrid fusion (protein, UniProt F4KEW8 1-558)
chain: MDYDLLRSKKSIKRVESTKSNPWWWDSHIGLKNSKWLENNLDEMDRSVKRMVKLIEEDADSFAKKAEMYYQSRPELIALVDEFHRMYRALAERYENITGELRKGSPLELQSQGSGLSDISASDLSALWTSNEVNRLGRPPSGRRAPGFEYFLGNGGLPSDLYHKDGDDSASITDSELESDDSSVTNYPGYVSIGSDFQSLSKRIMDLEIELREAKERLRMQLEGNTESLLPRVKSETKFVDFPAKLAACEQELKDVNEKLQNSEDQIYILKSQLARYLPSGLDDEQSEGAASTQELDIETLSEELRITSLRLREAEKQNGIMRKEVEKSKSDDAKLKSLQDMLESAQKEAAAWKSKASADKREVVKLLDRISMLKSSLAGRDHEIRDLKTALSDAEEKIFPEKAQVKADIAKLLEEKIHRDDQFKELEANVRYLEDERRKVNNEKIEEEEKLKSEIEVLTLEKVEKGRCIETLSRKVSELESEISRLGSEIKARDDRTMEMEKEVEKQRRELEEVAEEKREVIRQLCFSLDYSRDEYKRLRIAFSGHPPTRPSSILAS
B4: the binding result in test [4] was “binds”; in test [7] it was “no binding”; in test [8], “no binding”; in [9], “no binding”.

B5: NET4B, full length, yeast two-hybrid fusion (protein, UniProt Q84VY2 1-517)
chain: MASSTAQSKKQFKRSMTKKSHSWWWDSHNCPKNSKWLAENLEKMDDRVNHMLKLIEEDADSFAKKAQMYFQKRPELIQLVEEFYRMYRALAERYDQASGELQKNHTSEIQSQSSLEISSPTKEKLSRRQSSHKEEEDSSSLTDSGSDSDHSSANDEDGDEALIRRMAELELELQETKQKLLLQQESVDGDNNVDLLHKITTYEGELKEANEKMRMHEDEIANLKNQLQSFMSFDTEDHLGAEQKSVDLDKEDTKEDAVATKVLALEEELSIAKEKLQHFEKETYSLKNELEIGKAAEEKLKSLQHELELAQRDADTYINKLNAEKKEVLKLQERLAMVKTSLQDRDNEIRALKTAVSDAEQKIFPEKAQIKGEMSKMLEERSQLGEQLRELESHIRLIKEEKAETEEKLRGGTEKISGMRDESNVLREEIGKREEKIKETEKHMEELHMEQVRLRRRSSELTEEVERTRVSASEMAEQKREAIRQLCMSLDHYRDGYDRLWRVVAGHKSKRVVVLST
B5: the binding entry was “binds” in test [4]; “no binding” in test [7]; “no binding” in test [8]; “binds” in [6]; “no binding” in test [9].

B6: NET4B-RFP (protein, UniProt Q84VY2 1-517)
chain: MASSTAQSKKQFKRSMTKKSHSWWWDSHNCPKNSKWLAENLEKMDDRVNHMLKLIEEDADSFAKKAQMYFQKRPELIQLVEEFYRMYRALAERYDQASGELQKNHTSEIQSQSSLEISSPTKEKLSRRQSSHKEEEDSSSLTDSGSDSDHSSANDEDGDEALIRRMAELELELQETKQKLLLQQESVDGDNNVDLLHKITTYEGELKEANEKMRMHEDEIANLKNQLQSFMSFDTEDHLGAEQKSVDLDKEDTKEDAVATKVLALEEELSIAKEKLQHFEKETYSLKNELEIGKAAEEKLKSLQHELELAQRDADTYINKLNAEKKEVLKLQERLAMVKTSLQDRDNEIRALKTAVSDAEQKIFPEKAQIKGEMSKMLEERSQLGEQLRELESHIRLIKEEKAETEEKLRGGTEKISGMRDESNVLREEIGKREEKIKETEKHMEELHMEQVRLRRRSSELTEEVERTRVSASEMAEQKREAIRQLCMSLDHYRDGYDRLWRVVAGHKSKRVVVLST
On to B6, for which the binding entry in test [10] and in test [11] was “binds” throughout.
